# Screen size: about 310,000 compounds; about 2,200 (0.71%) showed an effect of 50% or more. Effects have a minus sign here. The list shows a part of the results.
# Target: human ether-à-go-go-related gene (hERG) potassium channel (human, UniProt Q12809)
# Test: primary screen, population patch clamp on CHO cells stably expressing hERG
# human ether-à-go-go-related gene (hERG) potassium channel, sequence (Q12809 whole entry, looked up): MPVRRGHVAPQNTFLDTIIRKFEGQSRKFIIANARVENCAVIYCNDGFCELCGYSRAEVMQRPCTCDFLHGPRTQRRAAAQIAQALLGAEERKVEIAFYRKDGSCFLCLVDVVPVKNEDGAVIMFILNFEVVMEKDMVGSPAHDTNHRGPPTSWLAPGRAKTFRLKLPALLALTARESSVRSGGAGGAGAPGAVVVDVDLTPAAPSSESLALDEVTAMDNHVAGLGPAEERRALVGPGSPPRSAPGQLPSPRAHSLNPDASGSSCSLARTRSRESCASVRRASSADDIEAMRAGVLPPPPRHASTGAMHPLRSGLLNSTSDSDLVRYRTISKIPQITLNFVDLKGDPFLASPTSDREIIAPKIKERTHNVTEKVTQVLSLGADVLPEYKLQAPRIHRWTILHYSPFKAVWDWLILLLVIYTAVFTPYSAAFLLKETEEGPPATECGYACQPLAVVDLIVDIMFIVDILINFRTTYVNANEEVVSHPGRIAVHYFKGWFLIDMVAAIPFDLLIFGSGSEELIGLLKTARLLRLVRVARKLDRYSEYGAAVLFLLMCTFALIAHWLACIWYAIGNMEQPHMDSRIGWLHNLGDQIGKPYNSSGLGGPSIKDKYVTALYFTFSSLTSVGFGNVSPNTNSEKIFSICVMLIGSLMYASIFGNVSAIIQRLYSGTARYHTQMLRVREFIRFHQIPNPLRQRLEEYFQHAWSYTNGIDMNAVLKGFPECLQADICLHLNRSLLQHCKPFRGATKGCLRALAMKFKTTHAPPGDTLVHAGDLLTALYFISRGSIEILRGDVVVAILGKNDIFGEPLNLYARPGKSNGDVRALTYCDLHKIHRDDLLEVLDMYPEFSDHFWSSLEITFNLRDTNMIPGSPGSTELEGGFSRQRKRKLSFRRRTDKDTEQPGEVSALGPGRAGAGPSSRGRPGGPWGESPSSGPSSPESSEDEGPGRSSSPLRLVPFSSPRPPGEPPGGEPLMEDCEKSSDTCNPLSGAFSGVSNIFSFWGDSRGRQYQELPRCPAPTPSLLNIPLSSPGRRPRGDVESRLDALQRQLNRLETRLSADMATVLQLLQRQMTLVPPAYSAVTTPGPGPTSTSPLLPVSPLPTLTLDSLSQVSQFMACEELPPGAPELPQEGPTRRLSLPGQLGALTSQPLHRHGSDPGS
row,SMILES,"hERG current change (%, negative = inhibition) at 1uM [%]"
1,COc1ccccc1N1CCN(C(c2ccccc2Cl)c2nnnn2C(C)(C)C)CC1.Cl (stereo not shown),14.1
2,CC(C)n1nc(C(=O)Nc2ccccc2N2CCOCC2)c2ccccc2c1=O,-6.47
3,COc1cccc2cc(-c3nnc(SCC(=O)Nc4cc(C(F)(F)F)ccc4Cl)n3N)oc12,13.4
4,O=C(c1ccc(=O)[nH]c1)N1CCN(S(=O)(=O)c2ccccc2)CC1,7.35
5,CC1CCN(S(=O)(=O)c2cccc3cccnc23)CC1,12.9
6,CCC(=O)N1CCN=C1SCc1ccc(F)cc1,4.87
7,CC(=O)NCc1ccc(S(=O)(=O)N2CCN(c3ccccn3)CC2)cc1,15.3
8,Cc1ccc(S(=O)(=O)N2CCN(C(=O)c3cc4c(C)nn(-c5ccccc5)c4s3)CC2)cc1,-6.86
9,C=CCN(c1ccccc1)S(=O)(=O)c1cccc(C(=O)OCC(=O)NC2CC2)c1,10.4
10,O=CNC(Cc1ccccc1)C(=O)O (stereo not shown),3.73
11,COc1ccc(CN(C)C(C)C(=O)Nc2cccc3ccccc23)cc1 (stereo not shown),11.2
12,O=C(Nc1ccc(Oc2ccc(NC(=O)c3ccco3)c(NC(=O)c3ccco3)c2)cc1)c1ccco1,8.51
13,C=CCOn1c(=O)c(-c2ccc(C)cc2)[n+]([O-])c2ccccc21,16.2
14,Nc1ccc(Br)cc1C(=O)c1ccccc1,20
15,Cl.N=c1n(CCCOc2ccc(F)cc2)c2ccccc2n1CC(N)=O,-4.09
16,N#C/C(=C\c1ccccc1)C(=O)OCC(=O)N1CCCC1,8.82
17,Cc1ccc2cc(C(c3nnnn3Cc3ccccc3)N3CCc4ccccc43)c(=O)[nH]c2c1 (stereo not shown),0.52
18,Cc1ccccc1C(=O)NC1CCS(=O)(=O)C1 (stereo not shown),11.4
19,O=C(c1ccc(CNc2c(N3CCCC3)c(=O)c2=O)cc1)N1CCc2ccccc2C1,-3.76
20,Cn1ccc(C(=O)N/N=C/c2ccccc2[N+](=O)[O-])n1,10.7
21,COc1cccc(-c2noc(C(C)n3nc(C)c([N+](=O)[O-])c3C)n2)c1 (stereo not shown),7.86
22,COC(=O)c1cnc2c(c(C)nn2C)c1OC,10.8

row,SMILES,"hERG current change (%, negative = inhibition) at 1uM [%]"
1,COc1ccc(S(=O)(=O)N2CCOCC2)cc1NS(=O)(=O)/C=C/c1ccccc1,10.8
2,CCOC(=O)Cc1csc(NC(=O)c2ccncc2)n1,6.06
3,CCN(CC(=O)Nc1ccc(NC(C)=O)cc1)C(=O)/C=C/c1cccs1,6.99
4,CCC(=O)N(Cc1cc(=O)[nH]c2ccccc12)C1CCCCC1,-0.812
5,Cc1ccccc1C(=O)NCC(=O)OC(C)C(=O)NC(C)CCc1ccccc1 (stereo not shown),12.5
6,CCCN(CCC)S(=O)(=O)c1ccc(NC(=O)c2cc(C(=O)OC)cc([N+](=O)[O-])c2)cc1,16.7
7,O=C(/C=C/c1ccco1)NC(=S)Nc1nc(-c2ccc(Cl)cc2)cs1,10.2
8,Cc1ccc(C)c(N(CC(=O)NC(C)C)C(=O)CCC(=O)Nc2ccccn2)c1,10.4
9,Cc1cc(C)n2nc(SCC(=O)NC3CCCCC3)nc2n1,11.3
10,Cc1nc2cc(C(=O)N3CCN(C)CC3)ccc2n1C,13.6
11,Cc1ccn2cc(C(=O)Nc3ccccc3N3CCOCC3)nc2c1,-4.14
12,COc1ccc(C)cc1Nc1n[n+](-c2ccccc2)c(-c2cc([N+](=O)[O-])cc(OC)c2O)s1.[Cl-],13
13,CCOc1ccccc1NC(=O)C(=O)NCCC1=CCCCC1,9.84
14,COc1ccc(Cl)cc1C(=O)CSc1nnnn1C,14.8
15,Cc1ccc(C(=O)NCC(=O)OCC(=O)Nc2ccc3[nH]c(=O)[nH]c3c2)cc1,6.2
16,CCOC(=O)c1cnc2c(-c3ccc(Cl)cc3)c(C)nn2c1N,19.5
17,Nc1ccc(N2CCCCC2)c2nonc12,3.14
18,CC(C)(C)c1nnc(N/N=C/c2ccc(Br)cc2)n(N)c1=O,1.62
19,COc1ccc(N2CCN(S(=O)(=O)CCNC(=O)c3cc(=O)c4ccccc4o3)CC2)cc1,9.6
20,CC(C(=O)O)N(C(=O)c1ccccc1)c1ccc(F)cc1 (stereo not shown),21.1
21,COc1cccc(NC(=S)NC2CC(C)(C)NC(C)(C)C2)c1,-3.54
22,C=CCN1C(=O)C2C3C=CC(C2C1=O)C1C2C(=O)N(CC=C)C(=O)C2C31 (stereo not shown),6.09

row,SMILES,"hERG current change (%, negative = inhibition) at 1uM [%]"
1,CNCC[C@H](Oc1cccc2ccccc12)c1cccs1.Cl,1.74
2,CCOP(=O)(OCC)C(NC(=O)c1ccc(Cl)cc1)=C(Cl)Cl,10.1
3,O=C(O)c1cccc(S(=O)(=O)Nc2ccccc2Cc2ccccc2)c1,12.8
4,COc1ccc(C2CC(c3ccccc3)=NN2C(=O)CCC(=O)O)cc1 (stereo not shown),10.8
5,Nn1c(Cc2cccc3ccccc23)nnc1SCc1c(F)cccc1Cl,4.2
6,Cc1occc1C(=O)N(C)Cc1nc(-c2ccc(Cl)cc2)no1,14.2
7,Cc1sc2ncn(CC(=O)NCCCC(=O)N3CCC(C)CC3)c(=O)c2c1C,12.7
8,Cc1ccc(OCCCCNC(C)c2ccccc2)c(C)c1 (stereo not shown),10.2
9,Cc1onc(-c2c(F)cccc2Cl)c1C(=O)O/N=C(\N)c1ccc([N+](=O)[O-])o1,8.68
10,Cc1nc2c([nH]c3ccccc32)c(=O)n1N,15.9
11,CCNC(=S)N/N=C1\C(=O)c2cccc3cccc1c23,13
12,Cc1ccc(OCCNC(=O)C(=O)NCc2ccco2)cc1,19.3
13,CC1(C)Cc2c(sc(NC(=O)c3ccc(S(=O)(=O)N4CCCCCC4)cc3)c2C(N)=O)C(C)(C)N1,12.8
14,CCNc1nc(NCC)n2c(SCC(=O)Nc3ccccc3C(F)(F)F)nnc2n1,-0.854
15,CCC(C)NC(=O)CCn1ccc2cc(S(=O)(=O)N3CCCC3)ccc21 (stereo not shown),13.4
16,CCOCCCNC(=O)C(NC(=O)Cc1cccs1)c1ccc(OC)cc1 (stereo not shown),10
17,CCOC(=O)C1CCN(Cc2ccc(OCc3ccccc3)c(OC)c2)CC1.O=C(O)C(=O)O,13.1
18,Cc1cc(Cl)nc(-c2ccccc2O)n1,9.23
19,CC(=O)c1ccc(NC(=O)C(C)Sc2nnnn2C)cc1 (stereo not shown),-4.63
20,C/C(=N\NC(=O)c1ccc(C(=O)N/N=C(\C)c2ccco2)o1)c1ccco1,3.1
21,O=C(N/N=C/c1cc(Br)c(O)c(Br)c1O)c1ccc2c(c1)OCCO2,8.39
22,CCc1nc2c3cnn(-c4cc(Cl)ccc4C)c3ncn2n1,13

row,SMILES,"hERG current change (%, negative = inhibition) at 1uM [%]"
1,CCOC(=O)C1CCCN(CCC(=O)Nc2ccccc2)C1.Cl (stereo not shown),8.12
2,CSc1nn2cc(CCN3CCOCC3)c(-c3ccc(F)cc3)nc2c1C#N,-0.221
3,CCc1ccc(CNC(=O)C2CCN(S(=O)(=O)N3CC(C)CC(C)C3)CC2)cc1 (stereo not shown),11.9
4,COc1ccc(C(=O)n2cnc3ccccc32)cc1Br,9.97
5,CCn1c(CCCOc2ccc(Cl)cc2Cl)nnc1SCC(=O)Nc1cccc(F)c1,22.4
6,COC(=O)CSc1nnc(CNC(=O)c2ccc(OC)c(OC)c2)n1C,6.68
7,CN1CCN(CC(=O)Nc2nc(-c3ccccc3)cs2)CC1,-4.75
8,Cn1c(=O)c2c(nc(/C=C/c3cccc(Cl)c3)n2C)n(C)c1=O,15.2
9,CCCNC(=O)c1csc(Nc2cccc3ccccc23)n1,6.46
10,CS(=O)(=O)N(CC(=O)N1CCCC1)c1ccc(Cl)c(Cl)c1,7.4
11,Cc1cc(C)n(CC(=O)N2c3ccccc3Sc3ccc(C(F)(F)F)cc32)n1,11.2
12,CC(C)(C)c1ccc(C2=CC(c3ccccc3)n3ncnc3N2)cc1 (stereo not shown),10.8
13,CC(C(=O)NCc1ccc(F)cc1)n1ccc2cc(S(=O)(=O)N3CCCC3)ccc21 (stereo not shown),11.4
14,CN(C(=O)COC(=O)c1n[nH]c(=O)c2ccccc12)c1ccccc1,0.565
15,Cc1cc(C)n(-c2nnc(C)n2/N=C/c2ccccc2O)n1,-4.6
16,Cc1nc(Sc2nnnn2-c2ccccc2)c(C#N)c(C)c1C,9.33
17,CCc1cc(=O)oc2cc(C)cc(OCC(C)=O)c12,11.3
18,CCN(CC)CCCNC(=O)c1cc(Nc2ccc(OC)cc2)nc2ccccc12,-8.47
19,Nc1c(Cl)ncnc1N/N=C/c1ccc2ccccc2n1,5.62
20,COc1ccc(Cl)cc1S(=O)(=O)N(C)CC(=O)NCc1ccccn1,11.8
21,Cn1c(=O)oc2cc(S(=O)(=O)NCCC(=O)N3CCc4ccccc4C3)ccc21,-1.84
22,COc1ccc([C@@H]2C[C@H]3CN(Cc4ccccc4OC)C(=O)[C@]34CCCN24)cc1C,-0.567

# From PMC4336329 (PLoS ONE, 2015)
